{
  "source": "PubChem BioAssay AID485290",
  "about": "(National Center for Advancing Translational Sciences (NCATS), 2010)",
  "note": "“And” between values parts separate entries of the source, which are not always exact repeats. Equal entries are not always repeated. In all, about 350,000 compounds went through this assay and about 990 (0.28%) were called active. The inconclusive results got no clear call from the source; some entries with a clear call stand among them for comparison. Calls follow the shape of the dose curve; as a rule, active = well fitted inhibition curve with a large enough effect; inconclusive = small, poorly fitted or top-dose-only effect; inactive = no such curve, though single readings can be large or run the other way. Potencies of inconclusive entries are doubtful fits and often do not repeat. % is scaled to controls: 0 for no effect and ±100 for the full control effect; potency is read from the fitted curve at half-maximal effect; tags tell the direction and shape of the fitted curve.",
  "data": [
    {"target": "Tyrosyl-DNA phosphodiesterase 1 (Homo sapiens) (UniProt Q9NUW8)", "sequence (Q9NUW8 whole entry, looked up)": "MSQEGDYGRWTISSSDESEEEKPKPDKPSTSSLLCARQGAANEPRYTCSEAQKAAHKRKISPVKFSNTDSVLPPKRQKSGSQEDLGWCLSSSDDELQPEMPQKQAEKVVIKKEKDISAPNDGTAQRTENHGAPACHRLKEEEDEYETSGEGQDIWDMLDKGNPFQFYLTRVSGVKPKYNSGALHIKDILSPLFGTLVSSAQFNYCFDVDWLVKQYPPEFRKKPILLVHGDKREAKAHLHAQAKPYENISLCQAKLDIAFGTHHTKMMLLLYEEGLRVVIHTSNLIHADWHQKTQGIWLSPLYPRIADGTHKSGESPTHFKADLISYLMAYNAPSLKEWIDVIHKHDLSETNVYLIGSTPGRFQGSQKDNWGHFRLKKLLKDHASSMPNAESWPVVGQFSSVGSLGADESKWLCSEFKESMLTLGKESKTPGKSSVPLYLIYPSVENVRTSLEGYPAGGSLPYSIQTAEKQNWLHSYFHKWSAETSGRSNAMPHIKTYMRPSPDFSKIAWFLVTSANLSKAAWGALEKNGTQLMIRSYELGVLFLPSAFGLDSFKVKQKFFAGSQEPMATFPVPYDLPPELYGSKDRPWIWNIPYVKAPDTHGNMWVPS", "test": "qHTS Assay for Inhibitors of Tyrosyl-DNA Phosphodiesterase (TDP1); also: nearly all actives have a fitted effect of over 40% in size", "details": "recombinant TDP1, AlphaScreen DNA substrate cleavage; activity change, negative = inhibition: at 130 µM (top of the series) unless noted", "summary_of_the_method": "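Tdp1 1 nM final; 15 min RT w/ cpd; substrate 15 nM, 5 min; beads 10 ug/ml, 10 min; AlphaScreen read. Neg ctrl: no enzyme.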", "values": [
      {"smiles": "Cc1oc(C(=O)O)cc1COc1ccc2c(C)cc(=O)oc2c1", "Potency": "inconclusive: 50.1 µM [inhibitor, partial curve]"},
      {"smiles": "Cc1cc2cc(C)c3nnc(SCC(=O)Nc4ccc(S(=O)(=O)N5CCCCC5C)cc4)n3c2cc1C", "note": "(stereo not given)", "Potency": "inactive"},
      {"smiles": "OCCN1CCN(C(c2cccs2)c2ccc3cccnc3c2O)CC1", "note": "(stereo not given)", "Potency": "active: 7.08 µM"},
      {"smiles": "COc1ccc(CNC(=O)c2cc3cc4cc(OC)ccc4nc3o2)cc1", "Potency": "inconclusive: 39.8 µM [inhibitor, single point]"},
      {"smiles": "Cc1cc(-c2nc3c4c5c(sc4[nH]c(=O)n3n2)CCC5)c(C)o1", "Potency": "inconclusive: 11.2 µM [inhibitor, partial curve, poor fit]"},
      {"smiles": "O=C(NNC(=O)C1C2C=CC(C2)C1C(=O)O)c1ccccc1", "note": "(stereo not given)", "Potency": "inconclusive: 79.4 µM [inhibitor, single point]"},
      {"smiles": "CCOc1ccc2nc(SCc3ccccc3C#N)sc2c1", "Potency": "inconclusive: 17.8 µM [inhibitor, full curve, poor fit]"},
      {"smiles": "Cc1ccc(-c2noc(/C=C/c3ccccc3)n2)cc1", "Potency": "inconclusive: 25.1 µM [inhibitor, single point]"},
      {"smiles": "COc1ccc(/C=C2\\C(=O)NC(=S)N2C(=O)c2ccc(F)cc2)cc1", "Potency": "active: 20 µM"},
      {"smiles": "OCCN(Cc1ccccc1)Cc1ccccc1Cl", "Potency": "inconclusive: 50.1 µM [inhibitor, partial curve]"},
      {"smiles": "Cc1ccc(C(=O)NNC(=O)CCCCC(=O)NNC(=O)c2ccc(C)cc2)cc1", "Potency": "inconclusive: 79.4 µM [inhibitor, partial curve]"},
      {"smiles": "Cc1cccc2c1N(Cc1ccccc1OCCC(C)C)C(=O)C2=O", "Potency": "inactive"},
      {"smiles": "COC(=O)c1cc(-c2ccc3c(c2)OCO3)nc2ccccc12", "Potency": "inconclusive: 8.91 µM [inhibitor, partial curve]"},
      {"smiles": "CCC(=O)NC(c1cc(Cl)c2cccnc2c1O)C(C)C", "note": "(stereo not given)", "Potency": "inactive"},
      {"smiles": "O=C(O)c1cccc(-n2cccc2/C=C2/NC(=O)N(c3cccc(Cl)c3)C2=O)c1", "Potency": "inconclusive: 2.82 µM [inhibitor, full curve]"},
      {"smiles": "O=C1NC(c2ccc(Br)cc2)=N/C1=C/c1ccco1", "Potency": "inconclusive: 39.8 µM [inhibitor, partial curve]"},
      {"smiles": "Cc1ccc(NC(=O)NNC(=O)CN2C(=O)COc3ccccc32)cc1", "Potency": "inconclusive: 79.4 µM [inhibitor, single point]"},
      {"smiles": "Cc1nc(SCC(=O)Nc2cc(C(N)=O)cc(C(N)=O)c2)c2c(C)c(C)sc2n1", "Potency": "active: 10 µM"},
      {"smiles": "Cc1cc(C)c2c(N)c(C(=O)Nc3nccs3)sc2n1", "Potency": "inconclusive: 50.1 µM [inhibitor, partial curve]"},
      {"smiles": "N#C/C(=C\\c1ccc(OCc2ccc(Cl)cc2)cc1)C(=O)Nc1cccc(C(=O)O)c1", "Potency": "active: 35.5 µM"},
      {"smiles": "Cc1cccc(C)c1NC(=O)CSc1nc2c([nH]1)c(=O)n(C)c(=O)n2C", "Potency": "inconclusive: 79.4 µM [inhibitor, partial curve]"},
      {"smiles": "COc1ccc(O[C@H]2C=C[C@@H](c3ccccc3)O[C@@H]2CO/N=C\\[C@@H](C)[C@H](OCc2ccccc2)C(C)C)cc1", "activity change, negative = inhibition": "inactive: -1.59% [at 21 µM]"},
      {"smiles": "COc1cc(-c2nnc(COC(=O)c3ccc(C)o3)o2)cc(OC)c1OC", "Potency": "active: 20 µM"},
      {"smiles": "Cc1ccc(O)c(C2=Nc3ccccc3C2(C)C)c1", "Potency": "inconclusive: 22.4 µM [inhibitor, single point]"},
      {"smiles": "CCOC(=O)C1CCN(c2ccc([N+](=O)[O-])cc2S(=O)(=O)N2CCOCC2)CC1", "Potency": "inconclusive: 89.1 µM [inhibitor, single point]"},
      {"smiles": "COc1c(N2CCN(C(=S)NCc3ccccc3)C(C)C2)c(F)cc2c(=O)c(C(=O)O)cn(C3CC3)c12", "note": "(stereo not given)", "Potency": "inconclusive: 100 µM [inhibitor, single point]"},
      {"smiles": "COc1cc(-c2ccc(N=Nc3ccc4c(S(=O)(=O)O)cc(S(=O)(=O)O)c(N)c4c3O)c(OC)c2)ccc1N=Nc1ccc2c(S(=O)(=O)O)cc(S(=O)(=O)O)c(N)c2c1O", "Potency": "inconclusive: 3.55 µM [inhibitor, full curve, poor fit] and inconclusive: 282 nM [inhibitor, full curve, poor fit]"},
      {"smiles": "COC(=O)CC1C(=O)NCCN1C(=S)NC(=O)c1ccccc1[N+](=O)[O-]", "note": "(stereo not given)", "Potency": "inconclusive: 20 µM [inhibitor, single point]"},
      {"smiles": "COCCn1c(SCCOc2ccccc2)nc2ccccc2c1=O", "Potency": "inconclusive: 11.2 µM [inhibitor, single point]"},
      {"smiles": "O=C(C1CCN(S(=O)(=O)Cc2ccccc2)CC1)N1CCN(c2ccc(F)cc2)CC1", "Potency": "inactive"},
      {"smiles": "CC1CCN(CCC(=O)Nc2ccc3c(c2)OCCO3)CC1", "Potency": "inconclusive: 20 µM [inhibitor, partial curve]"},
      {"smiles": "Cc1ccc(C(=O)Nc2ccc(C(=O)OCc3cc(=O)n4ccsc4n3)cc2)cc1", "Potency": "active: 22.4 µM"},
      {"smiles": "COc1ccc(CCc2nnc(NS(C)(=O)=O)s2)cc1", "Potency": "inconclusive: 20 µM [inhibitor, full curve, poor fit]"},
      {"smiles": "COc1ccc(Cc2nnc(SCC(=O)NCc3ccco3)o2)cc1", "Potency": "inconclusive: 79.4 µM [inhibitor, partial curve]"},
      {"smiles": "O=S(=O)(c1cccc(Cl)c1Cl)N1CCN(C(=S)NCCCN2CCOCC2)CC1", "Potency": "inconclusive: 12.6 µM [inhibitor, partial curve]"},
      {"smiles": "O=C(Nc1cccnc1)c1cc(-c2ccc3c(c2)OCO3)on1", "Potency": "inconclusive: 89.1 µM [inhibitor, single point]"},
      {"smiles": "CC(=O)Oc1c(Cl)cc(Cl)cc1/C=C/c1ccc2ccccc2n1", "Potency": "inconclusive: 20 µM [inhibitor, full curve, poor fit]"},
      {"smiles": "Cc1ccc(-c2nn(-c3ccc(F)cc3)c3c2cnc2cc(F)c(F)cc23)cc1", "Potency": "inactive"},
      {"smiles": "Cc1nnc(SCC(=O)N(C)c2ccccc2)n1-n1cccc1", "Potency": "inactive"},
      {"smiles": "O=C(COC(=O)/C=C/c1ccco1)NCCc1ccccc1", "Potency": "active: 28.2 µM"},
      {"smiles": "COC(=O)c1ccccc1SC(CC(=O)c1ccccc1)c1ccc(F)cc1", "note": "(stereo not given)", "Potency": "inconclusive: 31.6 µM [inhibitor, single point]"},
      {"smiles": "COc1ccc(OC)c(C2NC(=O)c3sc(=S)n(-c4ccccc4)c3N2)c1", "note": "(stereo not given)", "Potency": "inconclusive: 63.1 µM [inhibitor, partial curve]"},
      {"smiles": "O=C(CSc1nnc(-c2cccnc2)s1)Nc1ccnc2ccccc12", "Potency": "inactive"},
      {"smiles": "O=C(O)c1cc(-c2ccc(/C=C3\\NC(=O)N(c4ccc(Cl)cc4)C3=O)o2)ccc1Cl", "Potency": "active: 6.31 µM"},
      {"smiles": "O=C(CN1C(=O)NC2(CCCC2)C1=O)NCCN1C(=O)S/C(=C\\c2ccccc2F)C1=O", "Potency": "inactive"},
      {"smiles": "Cc1cc(C)c2c(c1)/C(=c1/sc3n(c1=O)CN(c1ccccc1)CN=3)C(=O)N2", "Potency": "inconclusive: 15.8 µM [inhibitor, full curve]"},
      {"smiles": "COc1ccc(-c2csc(NC(=O)CSc3nc4ccccc4c(=O)[nH]3)n2)cc1", "Potency": "active: 79.4 µM"},
      {"smiles": "COc1ccc(Cc2n[nH]c(=S)o2)cc1", "Potency": "inactive"},
      {"smiles": "CCc1nnc(NC(=O)C2CC(=O)N(C3CCCCC3)C2)s1", "note": "(stereo not given)", "Potency": "active: 22.4 µM"},
      {"smiles": "CCOC(=O)C1CCN(c2nc(N)c3c(N)nc(SCC(=O)O)cc3c2C#N)CC1", "Potency": "active: 28.2 µM"},
      {"smiles": "S=c1[nH]ccn1-c1ccccc1Cl", "Potency": "inconclusive: 12.6 µM [inhibitor, partial curve, poor fit]"},
      {"smiles": "O=C(CSc1ccc2c(c1)OCCO2)Nc1ncccc1O", "Potency": "inconclusive: 15.8 µM [inhibitor, full curve]"},
      {"smiles": "Cc1cc(=S)[nH]c(=S)[nH]1", "Potency": "inactive"},
      {"smiles": "CCc1ccc(NC(=O)CNC(=O)Cn2ccc3ccccc3c2=O)cc1", "Potency": "inconclusive: 39.8 µM [inhibitor, single point]"},
      {"smiles": "COc1cc(NC(=O)COc2cccc3c2OC(C)(C)C3)cc(OC)c1OC", "Potency": "inactive"},
      {"smiles": "Cc1cc(OCc2cccc(Cl)c2)c(C)cc1CN1CCOCC1", "Potency": "inactive"},
      {"smiles": "Cc1cc(C(=O)O)ccc1-c1ccc(/C=C2\\NC(=O)N(Cc3ccc(F)cc3)C2=O)o1", "Potency": "active: 3.98 µM"},
      {"smiles": "COC(=O)c1cc2oc3ccccc3c2n1Cc1ccccn1", "Potency": "inactive"},
      {"smiles": "COC(=O)[C@@H](NC(=O)NC1CCCCC1C)C(C)C", "note": "(stereo not given in full)", "Potency": "inactive"},
      {"smiles": "COCCN(C)Cc1cn(-c2ccc(F)cc2F)nc1-c1ccccc1C", "Potency": "inconclusive: 39.8 µM [inhibitor, single point]"},
      {"smiles": "Cc1onc(-c2ccccc2)c1-c1nnc(CN2CCN(S(=O)(=O)c3ccccc3F)CC2)o1", "Potency": "inactive"},
      {"smiles": "O=c1ccc2ccc(O)c(O)c2o1", "Potency": "inconclusive: 35.5 µM [inhibitor, single point]"},
      {"smiles": "Cc1cc(C)c2cc(C#N)c(NCCOC(=O)c3ccccc3C)nc2c1", "Potency": "inconclusive: 14.1 µM [inhibitor, partial curve]"},
      {"smiles": "CCOc1ccc(NC(=O)CSc2cn[nH]n2)cc1", "Potency": "inconclusive: 100 µM [inhibitor, single point]"},
      {"smiles": "CN(C)CC(c1ccccc1)c1ccccc1", "Potency": "inconclusive: 28.2 µM [inhibitor, single point]"},
      {"smiles": "COc1ccc(-c2cccc(NS(=O)(=O)c3cc([N+](=O)[O-])ccc3C)c2)nn1", "Potency": "inconclusive: 39.8 µM [inhibitor, single point]"},
      {"smiles": "O=C(NCCN1CCN(c2ccccc2F)CC1)C1COc2ccccc2C1", "note": "(stereo not given)", "Potency": "inconclusive: 5.01 µM [inhibitor, single point]"},
      {"smiles": "O=C(CCl)Nc1c(C(=O)Nc2ccc3c(c2)OCCO3)oc2ccccc12", "Potency": "inconclusive: 35.5 µM [inhibitor, single point]"},
      {"smiles": "O=C(O)C1C2C=CC(C2)C1C(=O)NCc1ccc(Cl)cc1Cl", "note": "(stereo not given)", "Potency": "inconclusive: 56.2 µM [inhibitor, partial curve]"},
      {"smiles": "O=C1C(c2[nH]c3ccc(S(=O)(=O)O)cc3c2O)=Nc2ccc(S(=O)(=O)O)cc21", "Potency": "inconclusive: 11.2 µM [inhibitor, partial curve]"}
    ]}
  ]
}
